In PMC9911399, “Two distinct binding modes provide the RNA-binding protein RbFox with extraordinary sequence specificity”:
Where a chain is given by its changes, count along the chain named. Some of the results follow.

T1: RBFOX1 RRM RbFoxmut (Fox-RRM*) (Homo sapiens, UniProt Q9NWB1 109-208, R118D;E147R;N151S;E152T)
T1 sequence: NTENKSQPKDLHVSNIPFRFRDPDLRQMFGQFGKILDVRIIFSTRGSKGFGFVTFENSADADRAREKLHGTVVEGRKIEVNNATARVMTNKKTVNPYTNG

B1: CAGUGAG (DNA:RNA)
RNA: GGGAGACCGGAAUUCAGAUUGUCCCAGUGAGUUAAAUCCCGUCGUAGCCACCA
DNA 1: CAATCTGAATTCCGGTCTCCC
DNA 2: TGGTGGCTACGACGGGATT
B2: UCAGUUU (DNA:RNA)
RNA: GGGAGACCGGAAUUCAGAUUGUCCUCAGUUUUUAAAUCCCGUCGUAGCCACCA
DNA 1: CAATCTGAATTCCGGTCTCCC
DNA 2: TGGTGGCTACGACGGGATT
B3: ACGGAUU (DNA:RNA)
RNA: B2 RNA with U25A, A27G, U29A
DNA 1: CAATCTGAATTCCGGTCTCCC
DNA 2: TGGTGGCTACGACGGGATT
B4: AUCCUUC (DNA:RNA)
RNA: B2 RNA with U25A, C26U, A27C, G28C, U31C
DNA 1: CAATCTGAATTCCGGTCTCCC
DNA 2: TGGTGGCTACGACGGGATT
B5: ACUUAGG (DNA:RNA)
RNA: B1 RNA with C25A, A26C, G27U, G29A, A30G
DNA 1: CAATCTGAATTCCGGTCTCCC
DNA 2: TGGTGGCTACGACGGGATT
B6: AUCGCCU (DNA:RNA)
RNA: B2 RNA with U25A, C26U, A27C, U29C, U30C
DNA 1: CAATCTGAATTCCGGTCTCCC
DNA 2: TGGTGGCTACGACGGGATT
B7: CACCUUA (DNA:RNA)
RNA: B1 RNA with G27C, U28C, G29U, A30U, G31A
DNA 1: CAATCTGAATTCCGGTCTCCC
DNA 2: TGGTGGCTACGACGGGATT
B8: CAAACAG (DNA:RNA)
RNA: B1 RNA with G27A, U28A, G29C
DNA 1: CAATCTGAATTCCGGTCTCCC
DNA 2: TGGTGGCTACGACGGGATT
B9: AUUUUAA (DNA:RNA)
RNA: B1 RNA with C25A, A26U, G27U, G29U, G31A
DNA 1: CAATCTGAATTCCGGTCTCCC
DNA 2: TGGTGGCTACGACGGGATT
B10: ACACCAA (DNA:RNA)
RNA: B2 RNA with U25A, G28C, U29C, U30A, U31A
DNA 1: CAATCTGAATTCCGGTCTCCC
DNA 2: TGGTGGCTACGACGGGATT
B11: CACGUAG (DNA:RNA)
RNA: B1 RNA with G27C, U28G, G29U
DNA 1: CAATCTGAATTCCGGTCTCCC
DNA 2: TGGTGGCTACGACGGGATT
B12: UACCCUC (DNA:RNA)
RNA: B2 RNA with C26A, A27C, G28C, U29C, U31C
DNA 1: CAATCTGAATTCCGGTCTCCC
DNA 2: TGGTGGCTACGACGGGATT
B13: UCUGCGG (DNA:RNA)
RNA: B2 RNA with A27U, U29C, U30G, U31G
DNA 1: CAATCTGAATTCCGGTCTCCC
DNA 2: TGGTGGCTACGACGGGATT
B14: AGCCUGA (DNA:RNA)
RNA: B2 RNA with U25A, C26G, A27C, G28C, U30G, U31A
DNA 1: CAATCTGAATTCCGGTCTCCC
DNA 2: TGGTGGCTACGACGGGATT
B15: AAAUCCA (DNA:RNA)
RNA: B1 RNA with C25A, G27A, G29C, A30C, G31A
DNA 1: CAATCTGAATTCCGGTCTCCC
DNA 2: TGGTGGCTACGACGGGATT
B16: GAGGAUA (DNA:RNA)
RNA: B1 RNA with C25G, U28G, G29A, A30U, G31A
DNA 1: CAATCTGAATTCCGGTCTCCC
DNA 2: TGGTGGCTACGACGGGATT
B17: UUACAUG (DNA:RNA)
RNA: B2 RNA with C26U, G28C, U29A, U31G
DNA 1: CAATCTGAATTCCGGTCTCCC
DNA 2: TGGTGGCTACGACGGGATT
B18: CGAUACU (DNA:RNA)
RNA: B1 RNA with A26G, G27A, G29A, A30C, G31U
DNA 1: CAATCTGAATTCCGGTCTCCC
DNA 2: TGGTGGCTACGACGGGATT
B19: UUCGUCG (DNA:RNA)
RNA: B2 RNA with C26U, A27C, U30C, U31G
DNA 1: CAATCTGAATTCCGGTCTCCC
DNA 2: TGGTGGCTACGACGGGATT
B20: AGAACAU (DNA:RNA)
RNA: B2 RNA with U25A, C26G, G28A, U29C, U30A
DNA 1: CAATCTGAATTCCGGTCTCCC
DNA 2: TGGTGGCTACGACGGGATT

What follows are binders tested against T1, RBFOX1 RRM RbFoxmut (Fox-RRM*) (assay: EMSA; HiTS-Eq, 1 nM pool, 10 min; buffer printed only for the single-RNA assays: 10 mM Tris pH 7.5, 150 mM NaCl, 3.4 mM EDTA, 0.001% NP-40, 30 C). Conditions: tags: His6 N-terminal (pET28a); label: 5' 32P.
Summary of the method: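 These values rest on relative association constants, computed from read-count changes of each RNA species versus the control reaction and normalised to the cognate motif. Reads came from free RNA recovered by 8% native PAGE after purified RbFox RRM (wild type or mutant) at increasing concentrations was equilibrated for 10 min in 50 µL with 1 nM of a 5′-radiolabelled pool with 7 randomized nucleotides and DNA-annealed flanks.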
B1 was tested, and the binding signal was 0.139 KA relative to UGCAUGU.
For B2, the binding signal was 0.0841 KA relative to UGCAUGU.
In the case of B3, the binding signal is reported as 0.0816 KA relative to UGCAUGU.
B4 was tested, and the binding signal was 0.095 KA relative to UGCAUGU.
B5 was tested, and the binding signal was 0.0957 KA relative to UGCAUGU.
B6 was tested, and the binding signal was 0.0874 KA relative to UGCAUGU.
For B7, the binding signal was 0.106 KA relative to UGCAUGU.
In the case of B8, the binding signal is reported as 0.0731 KA relative to UGCAUGU.
In the case of B9, the binding signal is reported as 0.118 KA relative to UGCAUGU.
With B10 the binding signal was 0.107 KA relative to UGCAUGU.
In the case of B11, the binding signal is reported as 0.163 KA relative to UGCAUGU.
B12 was tested, and the binding signal was 0.0459 KA relative to UGCAUGU.
For B13, the binding signal was 0.083 KA relative to UGCAUGU.
With B14 the binding signal was 0.09 KA relative to UGCAUGU.
For B15, the binding signal was 0.0742 KA relative to UGCAUGU.
B16 was tested, and the binding signal was 0.0968 KA relative to UGCAUGU.
With B17 the binding signal was 0.0647 KA relative to UGCAUGU.
For B18, the binding signal was 0.0847 KA relative to UGCAUGU.
For B19, the binding signal was 0.124 KA relative to UGCAUGU.
B20 was tested, and the binding signal was 0.0619 KA relative to UGCAUGU.
